# Among all 300,000 compounds or so, about 1,200 (0.4%) were called active. This list was built around the results that the source calls inconclusive (neither active nor inactive); the mix of calls is not that of the screen. The call rests on the fitted dose curve; in most records, active means well fitted inhibition curve with a large enough effect; inconclusive means small, poorly fitted or top-dose-only effect, or another doubt; inactive means no such curve, though single readings can be large or run the other way. Where the call is inconclusive, the potency comes from a doubtful curve fit. A structure can be active in one record and inactive in another.
# Molecular target: Lysosomal alpha-glucosidase (Homo sapiens) (UniProt P10253)
# Test: qHTS Assay for Inhibitors and Activators of Human alpha-Glucosidase Cleavage of Glycogen;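 on activity change, negative = inhibition: 0% = full enzyme reaction and -100% = no-enzyme basal signal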
# Details: recombinant GAA, glycogen substrate, Amplex Red glucose oxidase fluorescence; activity change, negative = inhibition: at 76.4 µM (top of the series) unless noted
# In short: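 Recombinant enzyme (4 nM final) with compounds titrated up to 77 uM and bovine liver glycogen (30 ug) in citrate pH 5.0, 0.01% Tween-20, 37 C 40 min. Released glucose detected by Amplex Red/glucose oxidase (Ex 573/Em 610); AC50 from Hill fits.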
# Potency means the concentration at half of the fitted maximal effect.
SMILES,Potency,"activity change, negative = inhibition"
Cc1ccc(C)c(NC(=O)CSc2cn(CC(=O)N3CCCC3)c3ccccc23)c1,inactive,–
CC(C)CCN1NC2(CCC(C)CC2)NC1=S (stereo unspecified),"inconclusive: 19.8 µM [inhibitor, partial curve]",–
O=C(Nc1cc2c3c(c1)C1CCCC1CN3CC1CCCC21)c1ccccc1 (stereo unspecified),"inconclusive: 39.8 µM [activator, partial curve]",–
Cc1cc(Cl)ccc1OCC(=O)Nc1ccccc1C(=O)N1CCOCC1,inactive,–
Cc1cc(C)c(Cn2c(C)c(CNCCCc3ccccc3)c(C(=O)O)c2C)c(C)c1,inactive,–
COc1cc(/C=C/c2ccc(O)cc2)cc(OC)c1,"inconclusive: 11.2 µM [inhibitor, partial curve]",–
CSc1ccc(/C=N/n2c(COc3ccccc3)n[nH]c2=S)cc1,"inconclusive: 35.5 µM [inhibitor, single point]",–
COc1cc(NCCCCCCCN)c2ncccc2c1,inactive,–
O=C(NC1CCCC1)C(c1ccncc1)N(CC1CCCO1)C(=O)Cn1nnc(-c2cccs2)n1 (stereo unspecified),"inconclusive: 14.1 µM [inhibitor, partial curve]",–
Cn1c(N/N=C/c2cc3ccccc3nc2Cl)nc2ccccc21,"inconclusive: 39.5 µM [inhibitor, single point]",–
O=C1c2ccccc2C(=O)C1(CO)c1ccccc1,"inconclusive: 25.1 µM [inhibitor, single point]",–
COc1ccc(/C=N/NC(=S)Nc2c(C)n(C)n(-c3ccccc3)c2=O)cc1OC,"inconclusive: 50.1 µM [inhibitor, single point]",–
Fc1ccc(/C=N/n2c(C3CCCCC3)n[nH]c2=S)cc1,"inconclusive: 50.1 µM [inhibitor, single point]",–
O=C(O)C1Cc2[nH]cnc2C(c2ccc(F)cc2)N1 (stereo unspecified),"inconclusive: 39.8 µM [activator, single point]",–
O=c1cc(CO)oc(C(Nc2cccc(C(F)(F)F)c2)c2ccccn2)c1O (stereo unspecified),"inconclusive: 25.1 µM [inhibitor, single point]",–
O=c1c(OC2OC(CO)C(O)C(O)C2OC2OC(CO)C(O)C(O)C2O)c(-c2ccc(O)cc2)oc2cc(O)cc(O)c12 (stereo unspecified),"inconclusive: 50.1 µM [inhibitor, partial curve]",–
N#Cc1ccc(-c2cccs2)nc1SCc1c(F)cccc1Cl,inactive,–
CN(C)c1ccc(CN(CC2CCCO2)C(=O)COc2ccccc2Cl)cc1 (stereo unspecified),"inconclusive: 44.7 µM [inhibitor, single point]",–
C/C(=N\Nc1ccc(C(=O)O)cc1)c1ccc(-n2ccnc2)cc1,"inconclusive: 15.7 µM [inhibitor, partial curve]",–
CN(C)C(=O)c1ccc(NC(=O)Cn2nnnc2-c2ccccc2F)cc1,inactive,–
C/C(CC(=O)N1CCCC1)=N\NC(=O)c1cc2ccccc2cc1O,"inconclusive: 22.2 µM [inhibitor, partial curve]",–
O=C(Nc1ccccc1O)c1ccccc1O,"inconclusive: 14.1 µM [inhibitor, partial curve]",–
CCOc1ccc(-c2nc(C#N)c(NCc3ccco3)o2)cc1,"inconclusive: 25.1 µM [inhibitor, single point]",–
COc1ccc(N(CC(=O)N2CCCCCC2)S(=O)(=O)c2c(C)[nH]c(=O)[nH]c2=O)cc1,inactive,–

SMILES,Potency,"activity change, negative = inhibition"
Nc1sc(-c2ccccc2)cc1C(=O)O,active: 24.9 µM,–
Oc1ccc(-c2nc3ccccn3c2NCc2ccc3c(c2)OCO3)cc1,active: 35.5 µM,–
CCOc1ccc(-c2cnc(NCc3ccc(C(F)(F)F)cc3)n2C)cc1,active: 31.6 µM,–
O=C1NC(=S)CN1c1ccccc1,"inconclusive: 50.1 µM [inhibitor, single point]",–
O=C(NC(=S)NNC(=O)c1ccco1)c1ccccc1,"inconclusive: 17.8 µM [inhibitor, partial curve]",–
CCCn1c(NCc2cccc(OC)c2O)nc2ccccc21,"inconclusive: 25.1 µM [inhibitor, partial curve]",–
C(=N\Nc1nc2ccccc2[nH]1)/c1ccncc1,"inconclusive: 28.2 µM [inhibitor, partial curve]",–
CCC(C)(C)n1nnnc1C(c1ccccc1OC)N1CCN(C(=O)c2ccco2)CC1 (stereo unspecified),inactive,–
Cc1ccc(N(CC(=O)Nc2ccc(Br)cc2)S(=O)(=O)c2cccs2)cc1,"inconclusive: 7.08 µM [inhibitor, partial curve]",–
COc1ccc(Nc2oc(-c3ccccc3Cl)nc2C#N)cc1,"inconclusive: 20 µM [inhibitor, partial curve]",–
COc1cc(/C=C/c2cc(C(=O)O)c3ccccc3n2)cc(OC)c1O,active: 14.1 µM,–
Cc1nn(-c2ccccc2)c(C)c1/C=N/N1CCN(c2ccccn2)CC1,"inconclusive: 39.8 µM [inhibitor, partial curve]",–
Cc1ccc(C)c(/C=N/Nc2ccccn2)c1,"inconclusive: 35.5 µM [inhibitor, partial curve]",–
Cc1ccc(-n2c(=O)c3ccc(C(=O)NCc4ccco4)cc3n(Cc3ccccc3C#N)c2=O)cc1,active: 31.6 µM,–
Cc1ccc(NC(=S)NNC(=O)c2nn(C)c(C)c2Cl)cc1,"inconclusive: 17.8 µM [inhibitor, partial curve]",–
COc1ccc(C2C(C(=O)OCC3CCCO3)=C(C)NC3=C2C(=O)CC(c2ccco2)C3)cc1O (stereo unspecified),"inconclusive: 12.5 µM [inhibitor, partial curve]",–
COc1cc2[nH]c(Cl)c([N+](=O)[O-])c2cc1OC,inactive,–
COc1ccc(CCNc2oc(-c3ccccc3OC)nc2C#N)cc1OC,"inconclusive: 15.7 µM [inhibitor, partial curve]",–
Nc1ccc(Nc2nc(-c3cc4ccccc4oc3=O)cs2)cc1,"inconclusive: 14 µM [inhibitor, partial curve]",–
O=C(NNc1ccc(F)cc1F)C1CCC1,"inconclusive: 11.2 µM [inhibitor, partial curve]",–
Oc1cccc(/C=N/Nc2cccc3cccnc23)c1,"inconclusive: 35.2 µM [inhibitor, single point]",–
Cc1c(CCO)c(=O)n(-c2ccccc2)n1S(=O)(=O)c1ccc([N+](=O)[O-])cc1,"inconclusive: 39.8 µM [inhibitor, single point]",–
NC(N)=N/N=C/c1ccc(OCc2ccccc2)c(OCc2ccccc2)c1,inactive,–
COC(=O)c1ccccc1NC(=O)c1cnc(Nc2ccc(OC)cc2)c2ccccc12,inactive,–

SMILES,Potency,"activity change, negative = inhibition"
CCOC(=O)/C(=N\Nc1ccc(Cl)cc1)c1csc(Nc2ccccc2)n1,"inconclusive: 25.1 µM [inhibitor, partial curve]",–
CCOc1cc(Br)cc(C2NC(=O)c3c(sc4c3CCN(C)C4)N2)c1O (stereo unspecified),"inconclusive: 28.2 µM [inhibitor, partial curve]",–
Cc1ccc(S(=O)(=O)Nc2cc(C(C)C)c(O)cc2C)cc1,"inconclusive: 20 µM [inhibitor, partial curve]",–
COc1ccc(Cn2c(C(=O)O)c(CNCc3ccco3)c3ccc(OC)cc32)cc1,inactive,–
Cc1cc2c(c(=O)n1-c1ccccc1)C1O[C@](c3ccsc3)(Cc3cc(C#N)ccc31)O2,–,inactive: 9.26% [at 15.3 µM]
O=C1c2ccccc2C(=O)N1c1cccc(-c2csc(Nc3ccc4c(c3)OCO4)n2)c1,"inconclusive: 35.5 µM [inhibitor, partial curve]",–
O=C(c1ccc(Cl)cc1)c1c[nH]c(C(=O)NNc2ccccc2)c1,"inconclusive: 39.8 µM [inhibitor, single point]",–
COc1cc(/C=N/NC(=O)/C(=C/c2ccccc2)CCO)ccc1O,"inconclusive: 25.1 µM [inhibitor, partial curve]",–
COc1ccc(CCNC(=O)CCCCn2c(=O)c3ccccc3n(Cc3cc(C)ccc3C)c2=O)cc1OC,inactive,–
COc1cc(C2C(C(=O)/C=C/c3ccccc3)=C(O)C(=O)N2c2ccccn2)ccc1O (stereo unspecified),"inconclusive: 11.2 µM [inhibitor, full curve, poor fit]",–
COc1cccc(CNc2nccs2)c1O,"inconclusive: 31.6 µM [inhibitor, partial curve]",–
COc1ccc(NC(=S)N(CCCN2CCOCC2)Cc2cn(C)c3ccccc23)cc1OC,"inconclusive: 35.5 µM [inhibitor, partial curve]",–
CC(C)Cn1nc(NC(=O)c2cccc(Cl)c2)c2cc3ccccc3nc21,inactive,–
CCc1ccc(NC(=O)CNC(=O)c2cn(-c3ccccc3OC)c(=O)c3ccccc23)cc1,–,inconclusive: 30.1% [activator]
CC(C)NCC(O)c1ccc(O)c(O)c1 (stereo unspecified),"inconclusive: 3.16 µM [inhibitor, full curve]",–
Oc1ccccc1-c1nc2cnccn2c1Nc1ccc2c(c1)OCCO2,active: 7.88 µM,–
Cn1cnnc1SCC(=O)N1N=C2/C(=C/c3ccco3)CCCC2C1c1ccco1 (stereo unspecified),inactive,–
COCCNC(=S)NNC(=O)c1cccs1,"inconclusive: 35.5 µM [inhibitor, partial curve]",–
CN(C(=O)C1CCC(=O)N(Cc2ccccc2F)C1)C1CCOCC1 (stereo unspecified),inactive,–
Cc1ccc2[nH]c(=O)c(C(c3nnnn3C3CCCC3)N3CCCc4ccccc43)cc2c1 (stereo unspecified),inactive,–
CCO[C@@H]1OC(C(=O)NCc2ccccc2)=C[C@H](C2CCCCC2)[C@H]1CCCO,"inconclusive: 56.2 µM [inhibitor, partial curve, poor fit]",–
O=C(Cc1ccccc1)Nc1ccccc1N1CCCC1,"inconclusive: 17.8 µM [inhibitor, partial curve]",–
Cc1ccc(S(=O)(=O)Nc2cc(C)c(O)cc2C)cc1,active: 3.55 µM,–

# — PubChem BioAssay AID2100 (National Center for Advancing Translational Sciences (NCATS), 2009)
